# In the supplement of paper PMC12217912:
# This is one part of the list. Sequences were assembled here from the parent chain. Inactive controls read about 0.05.
# B1: TEV protease; numbered along this chain (parent)
# chain: MGESLFKGPRDYNPISSSICHLTNESDGHTTSLYGIGFGPFIITNKHLFRRNNGTLVVQSLHGVFKVKDTTTLQQHLVDGRDMIIIRMPKDFPPFPQKLKFREPQREERICLVTTNFQTKSMSSMVSDTSCTFPSGDGIFWKHWIQTKDGQCGSPLVSTRDGFIVGIHSASNFTNTNNYFTSVPKNFMELLTNQEAQQWVSGWRLNADSVLWGGHKVFMVKPEEPFQPVKEATQL
# Variants of: B1
# Assay: raw area under fraction-flipped curve 0-4 h after induction (AUC4h, not background-subtracted), DNA-recorder readout of cleavage of the substrate (dimensionless); higher = more cleavage of the substrate by the protease variant
# Conditions: temperature: 34 °C; time window: 0-4 h after rhamnose induction
# Protocol: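 In vivo DNA recorder in E. coli TOP10(DE3) ΔrhaA at 34 °C. Each TEVp single-site mutant (parent TEVp 0) is paired with a single-site variant of the 7-mer TEVs (canonical ENLYFQ|S). The substrate sits between flexible linkers in a Bxb1-sfGFP-TEVs-SsrA fusion, so cleavage stabilises Bxb1 and speeds flipping of a recombination array, read by NGS. The value is the raw area under the fraction-flipped curve over 0-4 h after rhamnose induction (AUC4h), with ≥20 reads per time point. It is not background-subtracted; inactive controls average about 0.047.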
# 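Further: Bxb1 expression induced with 0.2% (w/v) L-rhamnose at OD600 near 0.5, cultures sampled hourly, flipped fraction per protease–substrate barcode pair counted by paired-end Illumina sequencing.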
variant,measurement,value
MGESLFKGPRDYNPISSSICHLTNESDGHTTSLYGIGFGPFIITNKHLFRRNNGTLVVQSLHGVFKVKDTTTLQQHLVDGRDMIIIRMPKDFPPFPQKLKFREPQREERICLVTTNFQTKSMSSMVSDTSCTFPSGDGIFWKHWIQTKDGQCGSPLVSTRDGFIVGIHDASNFTNTNNYFTSVPKNFMELLTNQEAQQWVSGWRLNADSVLWGGHKVFMVKPEEPFQPVKEATQL [S169D],area with substrate CNLYFQS,0.0491
same,area with substrate DNLYFQS,0.0618
same,area with substrate FNLYFQS,0.043
same,area with substrate HNLYFQS,0.0774
same,area with substrate KNLYFQS,0.086
same,area with substrate LNLYFQS,0.0703
same,area with substrate MNLYFQS,0.0492
same,area with substrate NNLYFQS,0.062
same,area with substrate PNLYFQS,0.0633
same,area with substrate TNLYFQS,0.0528
same,area with substrate VNLYFQS,0.0667
same,area with substrate WNLYFQS,0.0486
same,area with substrate YNLYFQS,0.0483
MGESLFKGPRDYNPISSSICHLTNESDGHTTSLYGIGFGPFIITNKHLFRRNNGTLVVQSLHGVFKVKDTTTLQQHLVDGRDMIIIRMPKDFPPFPQKLKFREPQREERICLVTTNFQTKSMSSMVSDTSCTFPSGDGIFWKHWIQTKDGQCGSPLVSTRDGFIVGIHSASNFTNTNNYFTSVPKNFMELLTNQEAQQWVSGWRLNADSVLWGGHKVFMVKPEEPFQPVKEAQQL [T233Q],area with substrate CNLYFQS,0.0806
same,area with substrate DNLYFQS,0.0914
same,area with substrate HNLYFQS,0.064
same,area with substrate KNLYFQS,0.0702
same,area with substrate LNLYFQS,0.0673
same,area with substrate NNLYFQS,0.0681
same,area with substrate TNLYFQS,0.0651
same,area with substrate VNLYFQS,0.0918
same,area with substrate YNLYFQS,0.0527
MGESLFKGPRDYNPISSSICHLTNESDGHTTSLYGIGFGPFIITNKHLFRRNNGTLVVQSLHGVFKVKDTTTLQQHLVDGRDMIIIRMPKDFPPFPQKLKFREPQREERICLVTTNFQTKSMSSMCSDTSCTFPSGDGIFWKHWIQTKDGQCGSPLVSTRDGFIVGIHSASNFTNTNNYFTSVPKNFMELLTNQEAQQWVSGWRLNADSVLWGGHKVFMVKPEEPFQPVKEATQL [V126C],area with substrate CNLYFQS,0.0811
same,area with substrate DNLYFQS,0.0645
same,area with substrate INLYFQS,0.0751
same,area with substrate KNLYFQS,0.0639
same,area with substrate TNLYFQS,0.064
same,area with substrate WNLYFQS,0.064
MGESLFKGPRDYNPISSSICHLTNESDGHTTSLYGIGFGPGIITNKHLFRRNNGTLVVQSLHGVFKVKDTTTLQQHLVDGRDMIIIRMPKDFPPFPQKLKFREPQREERICLVTTNFQTKSMSSMVSDTSCTFPSGDGIFWKHWIQTKDGQCGSPLVSTRDGFIVGIHSASNFTNTNNYFTSVPKNFMELLTNQEAQQWVSGWRLNADSVLWGGHKVFMVKPEEPFQPVKEATQL [F41G],area with substrate CNLYFQS,0.0478
same,area with substrate DNLYFQS,0.0724
same,area with substrate FNLYFQS,0.0555
same,area with substrate HNLYFQS,0.045
same,area with substrate INLYFQS,0.0442
same,area with substrate KNLYFQS,0.0417
same,area with substrate PNLYFQS,0.0566
same,area with substrate QNLYFQS,0.0034
same,area with substrate RNLYFQS,0.0532
same,area with substrate SNLYFQS,0.0469
same,area with substrate TNLYFQS,0.0497
same,area with substrate WNLYFQS,0.0555
same,area with substrate YNLYFQS,0.036
MGESLFKGPRDYNPISSSICHLTNESDGHTTSLYGIGFGPFIITNKHLFRRNNGTLVVQSLHGVFKVKDTTTLQWHLVDGRDMIIIRMPKDFPPFPQKLKFREPQREERICLVTTNFQTKSMSSMVSDTSCTFPSGDGIFWKHWIQTKDGQCGSPLVSTRDGFIVGIHSASNFTNTNNYFTSVPKNFMELLTNQEAQQWVSGWRLNADSVLWGGHKVFMVKPEEPFQPVKEATQL [Q75W],area with substrate CNLYFQS,0.0578
same,area with substrate DNLYFQS,0.0547
same,area with substrate GNLYFQS,0.076
same,area with substrate HNLYFQS,0.0561
same,area with substrate INLYFQS,0.0523
same,area with substrate KNLYFQS,0.0386
same,area with substrate PNLYFQS,0.0568
same,area with substrate QNLYFQS,0.0573
same,area with substrate SNLYFQS,0.0518
same,area with substrate TNLYFQS,0.0551
same,area with substrate WNLYFQS,0.0524
same,area with substrate YNLYFQS,0.0563
MGESLFKGPRFYNPISSSICHLTNESDGHTTSLYGIGFGPFIITNKHLFRRNNGTLVVQSLHGVFKVKDTTTLQQHLVDGRDMIIIRMPKDFPPFPQKLKFREPQREERICLVTTNFQTKSMSSMVSDTSCTFPSGDGIFWKHWIQTKDGQCGSPLVSTRDGFIVGIHSASNFTNTNNYFTSVPKNFMELLTNQEAQQWVSGWRLNADSVLWGGHKVFMVKPEEPFQPVKEATQL [D11F],area with substrate CNLYFQS,0.0595
same,area with substrate DNLYFQS,0.0734
same,area with substrate FNLYFQS,0.0855
same,area with substrate HNLYFQS,0.0652
same,area with substrate INLYFQS,0.0876
same,area with substrate KNLYFQS,0.0688
same,area with substrate LNLYFQS,0.0415
same,area with substrate PNLYFQS,0.0642
same,area with substrate SNLYFQS,0.0632
same,area with substrate TNLYFQS,0.0739
same,area with substrate VNLYFQS,0.0633
same,area with substrate WNLYFQS,0.0627
same,area with substrate YNLYFQS,0.0554
MGESLFKGPRDYNPISSSICHLTNESDGHTTSLYGIGFGPFIITNKHLFRRNNGTLVVQSLHGVFKVKDTTTLQQHLVDGRDMIIIRMPKDFPPFPQKLKFREPQREERICLVTTNFQTKSMSSMVSDTSCTFPSGDGIFWKHWIQTKDGQCGSPLVSTRDGFIVGIHSTSNFTNTNNYFTSVPKNFMELLTNQEAQQWVSGWRLNADSVLWGGHKVFMVKPEEPFQPVKEATQL [A170T],area with substrate CNLYFQS,0.0466
same,area with substrate DNLYFQS,0.0529
same,area with substrate HNLYFQS,0.0589
same,area with substrate INLYFQS,0.0448
same,area with substrate QNLYFQS,0.0612
same,area with substrate WNLYFQS,0.0382
MGESLFKGPRDYNPISSSICHLTNESDGHTTSLYGIGFGPFIITNKHLFRRNNGTLVVQSLHGVFKVKDTTTLQQHLVWGRDMIIIRMPKDFPPFPQKLKFREPQREERICLVTTNFQTKSMSSMVSDTSCTFPSGDGIFWKHWIQTKDGQCGSPLVSTRDGFIVGIHSASNFTNTNNYFTSVPKNFMELLTNQEAQQWVSGWRLNADSVLWGGHKVFMVKPEEPFQPVKEATQL [D79W],area with substrate CNLYFQS,0.0661
same,area with substrate DNLYFQS,0.0932
same,area with substrate HNLYFQS,0.0683
same,area with substrate LNLYFQS,0.0621
same,area with substrate MNLYFQS,0.0569
same,area with substrate PNLYFQS,0.0792
same,area with substrate SNLYFQS,0.0613
same,area with substrate TNLYFQS,0.0674
same,area with substrate WNLYFQS,0.0598
MGESLFKGPRDYNPISSSICHLTNESDGHTTSLYGIGFGPFIITNKHLFRRNNGTLVVQSLHGVFKVKDTTTLQQHLVDGRDMIIIRMPKDFPPFPQKLKFREPQREERICLVTTNFQTKSMSSMVSDTECTFPSGDGIFWKHWIQTKDGQCGSPLVSTRDGFIVGIHSASNFTNTNNYFTSVPKNFMELLTNQEAQQWVSGWRLNADSVLWGGHKVFMVKPEEPFQPVKEATQL [S130E],area with substrate CNLYFQS,0.0703
same,area with substrate DNLYFQS,0.0844
same,area with substrate HNLYFQS,0.0557
same,area with substrate LNLYFQS,0.0594
same,area with substrate MNLYFQS,0.0606
same,area with substrate PNLYFQS,0.0634
same,area with substrate SNLYFQS,0.0644
same,area with substrate VNLYFQS,0.0674
MGESLFKGPRDYNPISSSICHLTNESDGHTTSLYGIGFGPFIITNKHLFRRNNGTLVVQSLHGVFKVKDTTTLQQHLVDGRDMIIIHMPKDFPPFPQKLKFREPQREERICLVTTNFQTKSMSSMVSDTSCTFPSGDGIFWKHWIQTKDGQCGSPLVSTRDGFIVGIHSASNFTNTNNYFTSVPKNFMELLTNQEAQQWVSGWRLNADSVLWGGHKVFMVKPEEPFQPVKEATQL [R87H],area with substrate CNLYFQS,0.0845
same,area with substrate DNLYFQS,0.0679
same,area with substrate HNLYFQS,0.0472
same,area with substrate KNLYFQS,0.0594
same,area with substrate LNLYFQS,0.0687
same,area with substrate MNLYFQS,0.059
same,area with substrate NNLYFQS,0.0441
same,area with substrate QNLYFQS,0.0712
same,area with substrate RNLYFQS,0.0461
same,area with substrate SNLYFQS,0.063
same,area with substrate TNLYFQS,0.0732
same,area with substrate YNLYFQS,0.0466
